Results as given in PubChem BioAssay (NCATS).
The inconclusive results got no clear call from the source; some entries with a clear call stand among them for comparison. Potencies of inconclusive entries are doubtful fits and often do not repeat. The source made the active and inactive calls. Calls follow the shape of the dose curve; as a rule, active = well fitted inhibition curve with a large enough effect; inconclusive = small, poorly fitted or top-dose-only effect; inactive = no such curve, though single readings can be large or run the other way.

Target: Retinaldehyde dehydrogenase 3 (Homo sapiens) (UniProt P47895)
Assay: qHTS for Inhibitors of the Aldehyde Dehydrogenase Family (ALDH1A3) Primary screen (AID 2061315);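 as to activity change, negative = inhibition: plate controls were DMSO vehicle for no effect and reference inhibitor for full effect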
Conditions: ALDH inhibition qHTS; activity change, negative = inhibition: at 56 µM (top of the series) unless noted
Potency is read from the fitted curve at half-maximal effect; tags tell the direction and shape of the fitted curve.

| SMILES | Potency | activity change, negative = inhibition |
| --- | --- | --- |
| O=C(/C=C/c1ccccc1)O[C@@H]1[C@@H](CO)O[C@@](CO)(O[C@H]2O[C@H](CO)[C@@H](O)[C@H](O)[C@H]2O)[C@H]1O | inconclusive: 3.55 µM [inhibitor, partial curve, poor fit] |  |
| COC(=O)C1=COC(O[C@@H]2O[C@H](CO)[C@@H](O)[C@H](O)[C@H]2O)C2C(C)C(=O)CC12 (some centres not stated) | inconclusive: 10 µM [inhibitor, partial curve, poor fit] |  |
| O=C(O)c1ccc(O)c2ncc(NCC3CCCN(CCc4ccccc4)C3)cc12 (configuration not stated) | inconclusive: 17.8 µM [inhibitor, partial curve, poor fit] |  |
| C[C@H](NC(c1cccc(C[P+](=O)O)c1)[C@H](C)O)c1ccc(Cl)c(Cl)c1 (some centres not stated) |  | inactive: -7.65% |
| O=C(/C=C/c1ccc(O)c(O)c1)O[C@H]1[C@@H]2C=CO[C@@H](O[C@@H]3O[C@H](CO)[C@@H](O)[C@H](O)[C@H]3O)[C@@H]2[C@@]2(CO)O[C@@H]12 | inconclusive: 5.62 µM [inhibitor, partial curve] |  |
| COc1ccc(NS(=O)(=O)c2ccc(C)cc2)c(C(=O)Nc2nc(-c3ccccc3)cs2)c1 |  | inactive: 7.63% |
| O=C1c2ccccc2C(=O)N1c1cccc2cccnc12 | inconclusive: 28.2 µM [inhibitor, partial curve, poor fit] |  |
| C=C1CC[C@@H]2[C@](C)(CO[C@@H]3O[C@H](CO)[C@@H](O)[C@H](O)[C@H]3O)CCC[C@@]2(C)[C@@H]1CCC1=CCOC1=O | inconclusive: 3.16 µM [inhibitor, full curve, poor fit] |  |
| CN(C)c1ccc(-c2nc3ccccc3s2)cc1 | inconclusive: 1 µM [inhibitor, full curve, poor fit] |  |
| O=[S+]([O-])(Nc1ccc(C2CCNCC2)cc1)c1ccc(NCc2ccc(Br)cc2O)cc1 |  | inactive: 10.3% |
| C[C@@H]1O[C@@H](O[C@H]2[C@H](OC(=O)[C@]34CCC(C)(C)C[C@H]3C3=CCC5[C@@]6(C)C[C@H](O)[C@H](O[C@@H]7O[C@H](CO)[C@@H](O)[C@H](O)[C@H]7O)[C@@](C)(CO)C6[C@H](O)C[C@@]5(C)[C@]3(C)CC4)OC[C@H](O)[C@@H]2O)[C@H](O)[C@H](O)[C@H]1O[C@@H]1OC[C@@H](O)[C@H](O[C@@H]2OC[C@](O)(CO)[C@H]2O)[C@H]1O (some centres not stated) |  | inactive: 7.08% [at 11.2 µM] |
| Cn1c2ccc(F)cc2c2c(C(=O)N3CCCC3)cn(-c3ccccc3)c(=O)c21 |  | inactive: 4.41% |
| C=C(C)C1CCC2(C(=O)O)CCC3(C)C(CCC4C5(C)C(C=O)C(O)C(C)(C)C5CCC43C)C12 (configuration not stated) |  | inactive: 5.56% [at 28 µM] |
| COc1cc2nc(N3CCN(C)CC3)nc(NC3CCN(Cc4ccccc4)CC3)c2cc1OC | inconclusive: 14.1 µM [inhibitor, partial curve, poor fit] |  |
| CC1=CC(=O)CC(C)(C)C1CO[C@@H]1O[C@H](CO)[C@@H](O)[C@H](O)[C@H]1O (some centres not stated) | inconclusive: 11.2 µM [inhibitor, partial curve, poor fit] |  |
| CC1(C)CC2C3=CCC4C5(C)CCC(OC6OC(C(=O)O)C(O)C(O)C6OC6OC(CO)C(O)C(O)C6OC6OC(CO)C(O)C(O)C6O)C(C)(CO)C5CCC4(C)C3(C)CCC2(C)C(OC2OCC(O)C(OC3OC(CO)C(O)C(O)C3O)C2O)C1O (configuration not stated) |  | inactive: -21.1% [at 11.2 µM] |
| Fc1ccccc1-c1nc(-c2cccc(-c3nn[nH]n3)c2)no1 | inconclusive: 35.5 µM [inhibitor, single point] |  |
| CC1=C(C(=O)N(C)C)C(c2ccccc2Br)N=C(Nc2nc3ccccc3o2)N1 (configuration not stated) |  | inactive: 6.4% |
| Cc1cc(C)nc(NC(=S)N2CCN(c3ccc(F)c(F)c3F)CC2)c1 |  | inactive: 13.2% |
| COC(=O)C1=COC(O[C@@H]2O[C@H](CO[C@@H]3O[C@H](COC(=O)/C=C\c4ccc(O)cc4)[C@@H](O)[C@H](O)[C@H]3O)[C@@H](O)[C@H](O)[C@H]2O)C2C(CO)=CCC12 (some centres not stated) | inconclusive: 12.6 µM [inhibitor, single point] |  |
| Cc1ccc(-c2cc(C(=O)Nc3ccccn3)c3ccccc3n2)cc1C | inconclusive: 0.282 µM [inhibitor, full curve, poor fit] |  |
| COC(=O)C1=COC(OC2OC(CO)C(O)C(O)C2O)C2C(C)C(OC(=O)/C=C/c3ccc(O)cc3)C(O)C12 (configuration not stated) |  | inactive: 5.45% [at 28 µM] |
